# From the supplement of paper PMC10037445
# In all, about 2,900 compounds were measured (“NF-kB SEAP reporter activity, fold change vs agonist alone”: median about 0.99, highest 2% from about 2.6 on). The list shows a part of the results.
# How the values were obtained:
# [1] = tested on: RAW-Dual; test: NF-kB SEAP reporter activity, fold change vs agonist alone; cytotoxicity flag (confluency mask): not cytotoxic; higher = enhanced NF-kB activity
# How it was run: (§1)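 RAW-Dual macrophages were seeded in DMEM at 50,000 cells/well in 384-well plates, given 50 nL of library stock by pin tool, and given a PRR agonist 1 h later. Plates were held at 37 °C, 5% CO2 for 20 hours, after which supernatant was read for IRF by QuantiLuc luminescence and for NF-κB by QuantiBlue absorbance at 620 nm. Reporter activity is expressed as fold change over wells that received agonist alone. A well was called cytotoxic when IncuCyte confluency fell below 70% of agonist controls in both mask sets.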
# [2] = tested on: RAW-Dual; test: NF-kB SEAP reporter activity, fold change vs agonist alone; higher = enhanced NF-kB activity; details: cytotoxicity flag (confluency mask): not cytotoxic
# How it was run: as §1
# [3] = agonist: ODN 1826 (TLR9) 0.5 ug/mL
# [4] = agonist: Pam2CSK4 (TLR2/6) 0.1 ug/mL
# [5] = agonist: Pam3CSK4 (TLR2/1) 0.1 ug/mL
# [6] = library stock concentration (final ~1000-fold dilution): 10 mM, agonist: Imiquimod (TLR7) […]
# [7] = library stock concentration (final ~1000-fold dilution): 10 mM, agonist: MPLA (TLR4) […]
structure (smiles),measurement,setting,value
COc1cccc(NC(=O)/C=C/c2ccc(Cl)cc2)c1 (library stock concentration (final ~1000-fold dilution): 10 mM),NF-kB SEAP reporter activity,[1]; agonist: LPS (TLR4) 0.1 ug/mL,1.18
same,NF-kB SEAP reporter activity,[1]; [3],0.828
same,NF-kB SEAP reporter activity,[1]; [4],0.682
same,NF-kB SEAP reporter activity,[1]; [5],0.711
COc1cc(OC)c2c(=O)[nH]c(-c3cc(C)c(OCCO)c(C)c3)nc2c1 (library stock concentration (final ~1000-fold dilution): 10 mM),NF-kB SEAP reporter activity,[1]; agonist: LPS (TLR4) 0.1 ug/mL,1.69
same,NF-kB SEAP reporter activity,[1]; [3],1.95
same,NF-kB SEAP reporter activity,[1]; [4],1.24
same,NF-kB SEAP reporter activity,[1]; [5],1.69
COc1cc(OC)c2c(=O)[nH]c(-c3cc(C)c(OCCO)c(C)c3)nc2c1,NF-kB SEAP reporter activity,[2]; [6],1.27
same,NF-kB SEAP reporter activity,[2]; [7],1.95
CNCCN1CCC(OCc2ccccc2)CC1.Cl.Cl (library stock concentration (final ~1000-fold dilution): 10 mM),NF-kB SEAP reporter activity,[1]; agonist: LPS (TLR4) 0.1 ug/mL,1.03
same,NF-kB SEAP reporter activity,[1]; [3],1.45
same,NF-kB SEAP reporter activity,[1]; [4],0.877
same,NF-kB SEAP reporter activity,[1]; [5],1.53
CNCCN1CCC(OCc2ccccc2)CC1.Cl.Cl,NF-kB SEAP reporter activity,[2]; [6],1.55
same,NF-kB SEAP reporter activity,[2]; [7],0.921
CC(C)(Cc1ccc2ccccc2c1)NCC(O)COc1cccc(Cl)c1C#N (stereo unspecified) (library stock concentration (final ~1000-fold dilution): 10 mM),NF-kB SEAP reporter activity,[1]; agonist: LPS (TLR4) 0.1 ug/mL,0.273
same,NF-kB SEAP reporter activity,[1]; [3],0.962
same,NF-kB SEAP reporter activity,[1]; [4],0.164
same,NF-kB SEAP reporter activity,[1]; [5],1.03
CC(C)(Cc1ccc2ccccc2c1)NCC(O)COc1cccc(Cl)c1C#N (stereo unspecified),NF-kB SEAP reporter activity,[2]; [6],0.896
same,NF-kB SEAP reporter activity,[2]; [7],0.972
Cn1cc(-c2ccc(F)c(C(F)(F)F)c2)nc1C1CCN(c2ncnc3[nH]ncc23)CC1 (library stock concentration (final ~1000-fold dilution): 2 mM),NF-kB SEAP reporter activity,[1]; agonist: LPS (TLR4) 0.1 ug/mL,1.41
same,NF-kB SEAP reporter activity,[1]; [3],1.04
same,NF-kB SEAP reporter activity,[1]; [4],1.04
same,NF-kB SEAP reporter activity,[1]; [5],1
Cn1cc(-c2ccc(F)c(C(F)(F)F)c2)nc1C1CCN(c2ncnc3[nH]ncc23)CC1,NF-kB SEAP reporter activity,"[2]; library stock concentration (final ~1000-fold dilution): 2 mM, agonist: Imiquimod (TLR7) […]",0.187
same,NF-kB SEAP reporter activity,"[2]; library stock concentration (final ~1000-fold dilution): 2 mM, agonist: MPLA (TLR4) […]",1.05
Cc1cc(=O)oc2cc(O)ccc12 (library stock concentration (final ~1000-fold dilution): 10 mM),NF-kB SEAP reporter activity,[1]; agonist: LPS (TLR4) 0.1 ug/mL,0.99
same,NF-kB SEAP reporter activity,[1]; [3],1.06
same,NF-kB SEAP reporter activity,[1]; [4],1.22
same,NF-kB SEAP reporter activity,[1]; [5],1.26
Cc1cc(=O)oc2cc(O)ccc12,NF-kB SEAP reporter activity,[2]; [6],1.04
same,NF-kB SEAP reporter activity,[2]; [7],1
COc1cccc(-c2ccc(NC(=O)C3=C(C(=O)O)CCC3)c(F)c2)c1,NF-kB SEAP reporter activity,[2]; [6],1.4
same,NF-kB SEAP reporter activity,[2]; [7],0.947
